Some of the results follow. At the low end of the ranking the order means little.
Target: GST-SBP-SLBP (stem-loop binding protein) (UniProt Q14493)
Assay: targeted RNA Bind-n-Seq;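 also: DESeq read counts versus GST-SBP nonspecific binding control pulldown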
Details: RBNS binding buffer: 25 mM Tris pH 7.5, 150 mM KCl, 3 mM MgCl2, 0.1% Tween, 0.5 mg/mL BSA, 1 mM DTT; 27 nM protein, 750 pM RNA pool; temperature not stated; high values mean tight binding

Question: Which binding signal (log2 fold change) does the source give for “GGUCACGUCUCAAUCAACUCAUCUCCCAGGGAAAACCCUGGCUUUUUCAACAGCUCGCAGUCAAG” here?
Answer: -0.106

Question: How did the binding signal (log2 fold change) turn out when “GGUCACGUCUCAAUCAACUCAUCUCCCAGGGAAAACCCUGGCAUACUCAACAGCUCGCAGUCAAG” was run?
Answer: 0.00656

Question: How did the binding signal (log2 fold change) turn out when “GGUCACGUCUCAAUCAACUCAUUCCCAGGAGUUUACUCCUGUUAACUCAACAGCUCGCAGUCAAG” was run?
Answer: 0.107

Question: For “GGUCACGUCUCAAUCAACUCAUGUCCAGGAGUUUUCUCCUGCUUAUUCAACAGCUCGCAGUCAAG”, which binding signal (log2 fold change) is on record?
Answer: -0.128

Question: Which binding signal (log2 fold change) does the source give for “GGUCACGUCUCAAUCAACUCUCACGAGGGGGGGAAAACCCCUUUACCCUCUUUCUCAACAGCUCGCAGUCAAG” here?
Answer: -0.136

Question: “GGUCACGUCUCAAUCAACUCAUGUCCAGGAGUUUACUCCUGUUUAUUCAACAGCUCGCAGUCAAG” was tested. Which binding signal (log2 fold change) did it give?
Answer: -0.221

Question: For “GGUCACGUCUCAAUCAACUCAAUUCCCAGGGAAAUCCCUGGCUUUCUCAACAGCUCGCAGUCAAG”, which binding signal (log2 fold change) is on record?
Answer: -0.144

Question: For “GGUCACGUCUCAAUCAACUCAAUCUCAGGAGUUUCCUCCUGCUAAGUCAACAGCUCGCAGUCAAG”, which binding signal (log2 fold change) is on record?
Answer: -0.111

Question: For “GGUCACGUCUCAAUCAACUCAACGCCAGGAGUUUCCUCCUGUAUAUUCAACAGCUCGCAGUCAAG”, which binding signal (log2 fold change) is on record?
Answer: 0.0543

Question: “GGUCACGUCUCAAUCAACUCAUCCUCCAGGGAAAACCCUGGCAUAUUCAACAGCUCGCAGUCAAG” was tested. Which binding signal (log2 fold change) did it give?
Answer: 0.384

Question: “GGUCACGUCUCAAUCAACUCUUCUCCAGGAGUUUCCUCCUGUAAUUUCAACAGCUCGCAGUCAAG” was tested. Which binding signal (log2 fold change) did it give?
Answer: 0.109

Question: “GGUCACGUCUCAAUCAACUCAAUCUCCAGGGAAACCCCUGGCAAUGUCAACAGCUCGCAGUCAAG” was tested. Which binding signal (log2 fold change) did it give?
Answer: 0.187

Question: How did the binding signal (log2 fold change) turn out when “GGUCACGUCUCAAUCAACUCAAUUUCAGGAGUUUCCUCCUGUUAAUUCAACAGCUCGCAGUCAAG” was run?
Answer: -0.0542

Question: With “GGUCACGUCUCAAUCAACUCUUUUCCCAGGGAAAGCCCUGGUUUACUCAACAGCUCGCAGUCAAG” as the sequence, how does the binding signal (log2 fold change) read?
Answer: 0.106

Question: Which binding signal (log2 fold change) does the source give for “GGUCACGUCUCAAUCAACUCUUCGGAGGGGGGGAAAACCCCUUUACCCUCAUAUUCAACAGCUCGCAGUCAAG” here?
Answer: -0.196

Question: Which binding signal (log2 fold change) does the source give for “GGUCACGUCUCAAUCAACUCAUUCUCAGGAGUUUCCUCCUGCAUAUUCAACAGCUCGCAGUCAAG” here?
Answer: 0.0388

Question: How did the binding signal (log2 fold change) turn out when “GGUCACGUCUCAAUCAACUCAAGUCCAGGAGUUUCCUCCUGUAUAUUCAACAGCUCGCAGUCAAG” was run?
Answer: 0.0721

Question: For “GGUCACGUCUCAAUCAACUCAUCCCCAGGAGUUUACUCCUGCAAUCUCAACAGCUCGCAGUCAAG”, which binding signal (log2 fold change) is on record?
Answer: -0.112

Question: “GGUCACGUCUCAAUCAACUCCUCGGAGGGGGGGAAAACCCCUUUACCCUCAAUAUCAACAGCUCGCAGUCAAG” was tested. Which binding signal (log2 fold change) did it give?
Answer: 0.186

Question: For “GGUCACGUCUCAAUCAACUCAAUUCCCAGGGAAACCCCUGGUAUAUUCAACAGCUCGCAGUCAAG”, which binding signal (log2 fold change) is on record?
Answer: 0.0194

Question: With “GGUCACGUCUCAAUCAACUCUUUUUCAGGAGUUUUCUCCUGUUUAUUCAACAGCUCGCAGUCAAG” as the sequence, how does the binding signal (log2 fold change) read?
Answer: 0.153

From article PMC5892938
